# From the supplement of paper PMC11876631
# ± gives the standard deviation of the averaged measurements. Laboratory Escherichia coli strains with one amino-acid change in an essential protein, pooled on minimal glucose agar with carbenicillin or gentamicin at twice the control MIC (plus kanamycin and chloramphenicol for the plasmids), 48 h. Fold change of barcode share against drug-free plates; higher = less susceptible. Active = above 20 in both replicates (the paper's putatively resistant). '<' = one read or none on drug, '>' = one read or none on a drug-free plate. Shares are relative, so most strains fall below 1 when a few take over. Listed are strains with at least 15 reads on both drug-free plates, and hits; most hits rest on fewer reference reads. Replicate rank correlation about 0.5. Edits are read from barcodes.
# B1: argS; numbered along this chain (parent)
# chain: MNIQALLSEKVRQAMIAAGAPADCEPQVRQSAKVQFGDYQANGMMAVAKKLGMAPRQLAEQVLTHLDLNGIASKVEIAGPGFINIFLDPAFLAEHVQQALASDRLGVATPEKQTIVVDYSAPNVAKEMHVGHLRSTIIGDAAVRTLEFLGHKVIRANHVGDWGTQFGMLIAWLEKQQQENAGEMELADLEGFYRDAKKHYDEDEEFAERARNYVVKLQSGDEYFREMWRKLVDITMTQNQITYDRLNVTLTRDDVMGESLYNPMLPGIVADLKAKGLAVESEGATVVFLDEFKNKEGEPMGVIIQKKDGGYLYTTTDIACAKYRYETLHADRVLYYIDSRQHQHLMQAWAIVRKAGYVPESVPLEHHMFGMMLGKDGKPFKTRAGGTVKLADLLDEALERARRLVAEKNPDMPADELEKLANAVGIGAVKYADLSKNRTTDYIFDWDNMLAFEGNTAPYMQYAYTRVLSVFRKAEIDEEQLAAAPVIIREDREAQLAARLLQFEETLTVVAREGTPHVMCAYLYDLAGLFSGFYEHCPILSAENEEVRNSRLKLAQLTAKTLKLGLDTLGIETVERM
# B2: pheS; numbered along this chain (parent)
# chain: MSHLAELVASAKAAISQASDVAALDNVRVEYLGKKGHLTLQMTTLRELPPEERPAAGAVINEAKEQVQQALNARKAELESAALNARLAAETIDVSLPGRRIENGGLHPVTRTIDRIESFFGELGFTVATGPEIEDDYHNFDALNIPGHHPARADHDTFWFDTTRLLRTQTSGVQIRTMKAQQPPIRIIAPGRVYRNDYDQTHTPMFHQMEGLIVDTNISFTNLKGTLHDFLRNFFEEDLQIRFRPSYFPFTEPSAEVDVMGKNGKWLEVLGCGMVHPNVLRNVGIDPEVYSGFAFGMGMERLTMLRYGVTDLRSFFENDLRFLKQFK
# B3: purF; numbered along this chain (parent)
# chain: MCGIVGIAGVMPVNQSIYDALTVLQHRGQDAAGIITIDANNCFRLRKANGLVSDVFEARHMQRLQGNMGIGHVRYPTAGSSSASEAQPFYVNSPYGITLAHNGNLTNAHELRKKLFEEKRRHINTTSDSEILLNIFASELDNFRHYPLEADNIFAAIAATNRLIRGAYACVAMIIGHGMVAFRDPNGIRPLVLGKRDIDENRTEYMVASESVALDTLGFDFLRDVAPGEAIYITEEGQLFTRQCADNPVSNPCLFEYVYFARPDSFIDKISVYSARVNMGTKLGEKIAREWEDLDIDVVIPIPETSCDIALEIARILGKPYRQGFVKNRYVGRTFIMPGQQLRRKSVRRKLNANRAEFRDKNVLLVDDSIVRGTTSEQIIEMAREAGAKKVYLASAAPEIRFPNVYGIDMPSATELIAHGREVDEIRQIIGADGLIFQDLNDLIDAVRAENPDIQQFECSVFNGVYVTKDVDQGYLDFLDTLRNDDAKAVQRQNEVENLEMHNEG
# Variants of: B1
# Experiment: barcode share on antibiotic plates over drug-free plates; higher = less susceptible
# Settings: with Escherichia coli (laboratory strain); antibiotic: carbenicillin; 2× MIC (3.1 µg/mL)
# Description: (§1)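 A pool of E. coli strains, each edited to carry one amino-acid change in an essential protein, was grown for 48 h on minimal glucose agar with or without antibiotic; strain barcodes were sequenced; mean of two replicates.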
row,Variant,fold change of barcode share
1,F533W,0.212 ± 0.15

# Same assay, conditions: with Escherichia coli (laboratory strain); antibiotic: gentamicin; 2× MIC (MIC 0.45 µg/mL)
row,Variant,fold change of barcode share
1,F533W,0.0322 ± 0.027
2,V287Q,< 0.0108
3,V287W,< 0.0177

# Variants of: B2
# Experiment: as above
# Settings: with Escherichia coli (laboratory strain); antibiotic: carbenicillin; 2× MIC (3.1 µg/mL)
# Description: as §1
row,Variant,fold change of barcode share
1,I113A,0.206 ± 0.028
2,I113D,0.3691 ± 0.0036
3,I113P,0.239 ± 0.051
4,I113Q,0.282 ± 0.13
5,I113W,0.212 ± 0.02
6,I116A,0.344 ± 0.17
7,I116D,0.304 ± 0.068
8,I116P,0.23 ± 0.029
9,I116Q,0.38 ± 0.15
10,I116W,0.305 ± 0.076
11,F119A,0.271 ± 0.018
12,F119D,0.386 ± 0.23
13,F119P,0.33 ± 0.014
14,F119Q,0.282 ± 0.12
15,F119W,0.392 ± 0.25
16,L305A,0.157 ± 0.18
17,L305D,0.253 ± 0.16
18,L305P,0.243 ± 0.021
19,L305Q,0.288 ± 0.3
20,L305W,0.246 ± 0.0057

# Same assay, conditions: with Escherichia coli (laboratory strain); antibiotic: gentamicin; 2× MIC (MIC 0.45 µg/mL)
row,Variant,fold change of barcode share
1,I113A,0.00513 ± 0.0019
2,I113D,0.00529 ± 0.0032
3,I113P,0.00678 ± 0.00027
4,I113Q,0.0088 ± 0.0053
5,I113W,0.00487 ± 0.0022
6,I116A,< 0.00719
7,I116D,< 0.0102
8,I116P,0.00746 ± 0.0062
9,I116Q,< 0.00512
10,I116W,< 0.00988
11,F119A,< 0.00833
12,F119D,0.0101 ± 0.0029
13,F119P,< 0.00891
14,F119Q,< 0.0112
15,L305A,< 0.0153
16,L305D,0.0181 ± 0.013
17,L305P,< 0.01
18,L305Q,< 0.0147
19,L305W,< 0.00625

# Variants of: B3
# Experiment: as above
# Settings: with Escherichia coli (laboratory strain); antibiotic: carbenicillin; 2× MIC (3.1 µg/mL)
# Description: as §1
row,Variant,fold change of barcode share
1,L24A,1.31 ± 0.82
2,L24P,4.4 ± 0.42
3,L24Q,4.34 ± 0.28
4,L24W,55.2 [active]
5,I35A,0.687 ± 0.024
6,I35D,0.7785 ± 0.0065

# Same assay, conditions: with Escherichia coli (laboratory strain); antibiotic: gentamicin; 2× MIC (MIC 0.45 µg/mL)
row,Variant,fold change of barcode share
1,L24A,< 0.0032
2,L24P,0.0207 ± 0.0029
3,L24Q,0.00689 ± 0.0032
4,I35A,< 0.00324
5,I35D,0.0199 ± 0.0011
